According to PMC4151078, “Visualization of the physical and functional interaction between hMYH and hRad9 by Dronpa bimolecular fluorescence complementation” (BMC Molecular Biology, 2014):
Results are given in words; binding and its absence hold for the method and conditions named. For some of these results: Binding seen in cells or lysates may run through a third protein. Some results given as binding are weak or reduced against the parent protein; the word gives no strength. For some of these results: Sequences can lack the tags named with a protein.

Key:
[1] = target: T1, c-myc-hMYH-ΔN (amino acids 75-547) (human) (UniProt Q9UIF7); test: co-IP; HEK293 cells co-transfected with c-myc-tagged hMYH (full or deletion mutant) and FLAG-hRad9, 24 h; lysates immunoprecipitated with anti-c-myc antibody, blotted with anti-FLAG and anti-c-myc
T1 sequence: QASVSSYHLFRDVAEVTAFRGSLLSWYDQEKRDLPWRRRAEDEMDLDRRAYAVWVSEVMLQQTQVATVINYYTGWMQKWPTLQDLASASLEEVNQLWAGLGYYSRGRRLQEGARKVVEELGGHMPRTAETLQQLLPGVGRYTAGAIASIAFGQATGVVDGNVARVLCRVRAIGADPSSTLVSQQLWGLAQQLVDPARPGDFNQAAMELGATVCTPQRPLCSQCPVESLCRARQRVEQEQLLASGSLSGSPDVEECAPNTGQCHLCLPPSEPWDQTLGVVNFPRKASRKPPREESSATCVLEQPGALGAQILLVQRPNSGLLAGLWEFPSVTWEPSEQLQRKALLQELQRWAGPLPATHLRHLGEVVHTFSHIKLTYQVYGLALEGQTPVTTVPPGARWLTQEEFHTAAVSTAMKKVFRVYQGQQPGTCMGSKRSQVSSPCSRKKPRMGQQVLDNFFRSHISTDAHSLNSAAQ

[2] = target: T2, c-myc-hMYH-ΔNC (amino acids 75-487) (human) (UniProt Q9UIF7); test: as above
T2 sequence: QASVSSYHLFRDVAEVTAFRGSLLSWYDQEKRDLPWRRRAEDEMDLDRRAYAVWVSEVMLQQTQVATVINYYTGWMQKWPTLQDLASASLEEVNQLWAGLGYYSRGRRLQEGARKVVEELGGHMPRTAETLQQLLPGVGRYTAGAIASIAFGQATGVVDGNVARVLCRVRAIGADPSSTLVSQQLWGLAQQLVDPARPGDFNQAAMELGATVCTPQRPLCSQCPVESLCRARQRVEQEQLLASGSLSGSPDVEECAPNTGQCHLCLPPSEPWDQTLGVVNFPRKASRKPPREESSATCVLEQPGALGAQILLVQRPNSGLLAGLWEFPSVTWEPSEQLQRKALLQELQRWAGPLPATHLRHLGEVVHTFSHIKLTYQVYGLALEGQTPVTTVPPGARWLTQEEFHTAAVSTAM

[3] = target: T3, c-myc-hMYH-ΔC (amino acids 1-487) (human) (UniProt Q9UIF7); test: as above
T3 sequence: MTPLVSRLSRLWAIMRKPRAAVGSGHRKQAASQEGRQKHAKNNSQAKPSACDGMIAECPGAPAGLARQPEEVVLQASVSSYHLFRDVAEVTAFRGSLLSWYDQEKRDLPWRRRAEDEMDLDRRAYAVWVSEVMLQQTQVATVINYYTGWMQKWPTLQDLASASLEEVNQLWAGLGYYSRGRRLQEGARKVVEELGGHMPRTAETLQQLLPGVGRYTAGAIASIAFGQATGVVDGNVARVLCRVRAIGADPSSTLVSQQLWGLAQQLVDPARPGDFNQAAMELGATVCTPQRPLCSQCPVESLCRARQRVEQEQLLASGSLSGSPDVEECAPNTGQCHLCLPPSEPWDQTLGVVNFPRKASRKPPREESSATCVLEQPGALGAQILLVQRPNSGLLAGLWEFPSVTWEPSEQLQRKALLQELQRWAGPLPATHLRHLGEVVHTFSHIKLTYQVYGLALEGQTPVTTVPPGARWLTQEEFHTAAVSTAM

[4] = target: T4, c-myc-tagged hMYH (full-length, amino acids 1-547) (human) (UniProt Q9UIF7); test: as above
T4 sequence: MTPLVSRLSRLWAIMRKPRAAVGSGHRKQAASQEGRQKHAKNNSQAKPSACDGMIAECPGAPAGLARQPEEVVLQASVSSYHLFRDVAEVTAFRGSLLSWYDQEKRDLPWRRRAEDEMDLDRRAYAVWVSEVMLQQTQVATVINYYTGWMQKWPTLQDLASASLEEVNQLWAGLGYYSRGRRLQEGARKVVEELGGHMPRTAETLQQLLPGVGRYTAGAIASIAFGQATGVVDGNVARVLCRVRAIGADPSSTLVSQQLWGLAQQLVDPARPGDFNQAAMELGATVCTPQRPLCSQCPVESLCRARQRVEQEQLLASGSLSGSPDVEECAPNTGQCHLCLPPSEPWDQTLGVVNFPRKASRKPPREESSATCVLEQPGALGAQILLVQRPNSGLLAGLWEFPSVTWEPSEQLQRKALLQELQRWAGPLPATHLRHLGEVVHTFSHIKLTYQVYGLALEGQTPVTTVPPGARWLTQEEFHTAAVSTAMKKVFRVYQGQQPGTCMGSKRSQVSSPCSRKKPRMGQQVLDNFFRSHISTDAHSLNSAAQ

[5] = target: T5, endogenous hMYH (human (endogenous in HEK293)) (UniProt Q9UIF7); test: co-IP; lysates of untransfected HEK293 cells; endogenous hMYH immunoprecipitated with anti-hMYH antibody (mouse IgG as control), blotted with anti-hMYH and anti-hRad9
T5 sequence: T4 sequence

[6] = target: T6, endogenous hRad9 (human (endogenous in HEK293)) (UniProt Q99638); test: co-IP; total lysates of HEK293 cells immunoprecipitated with hRad9 antibody; cells transfected with siHus1 or siGFP (Figure 1C), or treated or not with DNase for 20 min at 37°C (Additional file 1)
T6 sequence: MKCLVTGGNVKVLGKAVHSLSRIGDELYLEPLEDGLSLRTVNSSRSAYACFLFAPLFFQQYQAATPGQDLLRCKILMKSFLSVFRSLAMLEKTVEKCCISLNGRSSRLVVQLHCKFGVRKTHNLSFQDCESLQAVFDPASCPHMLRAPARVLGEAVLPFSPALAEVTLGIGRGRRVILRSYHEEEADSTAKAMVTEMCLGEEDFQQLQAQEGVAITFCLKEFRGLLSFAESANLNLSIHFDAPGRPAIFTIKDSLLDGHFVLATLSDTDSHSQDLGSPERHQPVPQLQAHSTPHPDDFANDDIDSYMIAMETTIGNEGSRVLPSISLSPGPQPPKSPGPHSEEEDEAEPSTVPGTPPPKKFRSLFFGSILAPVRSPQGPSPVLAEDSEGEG

[7] = target: T7, hMYH-ΔNC-LDN (amino acids 75-487 fused to the Dronpa N-terminal fragment) (human) (UniProt Q9UIF7); test: split reporter; Dronpa-BiFC in HEK293 cells co-transfected for 24 h, fixed; confocal fluorescence microscopy, 488-nm excitation and 530-nm emission
T7 sequence: T2 sequence

[8] = target: T8, hMYH-ΔN-LDN (amino acids 75-547 fused to the Dronpa N-terminal fragment) (human) (UniProt Q9UIF7); test: as above
T8 sequence: T1 sequence

[9] = target: T9, hMYH-ΔC-LDN (amino acids 1-487 fused to the Dronpa N-terminal fragment) (human) (UniProt Q9UIF7); test: as above
T9 sequence: T3 sequence

[10] = target: T10, hMYH-LDN (full-length hMYH fused to the Dronpa N-terminal fragment) (human) (UniProt Q9UIF7); test: as above
T10 sequence: T4 sequence

ECFP/hMYH (human) = target: T11, ECFP/hMYH (human) (UniProt Q9UIF7); test: FRET or BRET; HEK293 cells co-transfected with ECFP/hMYH and EYFP/hRad9, 24 h, with or without HU, fixed; confocal fluorescence microscopy, FRET at 440/535 nm
T11 sequence: T4 sequence

[11] = target: T12, GST-hMYH-ΔNC (amino acids 75-487) (human) (UniProt Q9UIF7); test: pull-down; GST or GST-hMYH fusion on glutathione-Sepharose 4B beads, purified His-hRad9 added; 50 mM Tris-HCl pH 7.5, 150 mM NaCl, 1 mM EDTA, 0.3 mM DTT, 0.1% NP-40; 3 h at 4°C; blot with anti-GST and anti-His; both purified
T12 sequence: T2 sequence

[12] = target: T13, GST-hMYH-ΔN (amino acids 75-547) (human) (UniProt Q9UIF7); test: as above
T13 sequence: T1 sequence

B1: FLAG-tagged hRad9 (protein, UniProt Q99638 1-391)
chain: T6 sequence
In the case of B1, the binding [1] is reported as “no binding”, the binding [2] is reported as “no binding” and the binding [3] is reported as “binds”. The binding [4] was “binds”.

B2: endogenous hRad9 (protein, UniProt Q99638 1-391)
chain: T6 sequence
For B2, the binding [5] was “binds”.

B3: endogenous hMYH (protein, UniProt Q9UIF7 1-546)
chain: T4 sequence
For B3, the binding [6] was “binds”.

B4: DCL-hRad9 (Dronpa C-terminal fragment fused to hRad9) (protein, UniProt Q99638 1-391)
chain: T6 sequence
For B4, the binding [7] was “no binding”, the binding [8] was “no binding” and the binding [9] was “binds”. For the same binder, the binding [10] was “binds”.

B5: EYFP/hRad9 (protein, UniProt Q99638 1-391)
chain: T6 sequence
In the case of B5, the binding (ECFP/hMYH (human)) is reported as “binds”.

B6: His-hRad9 (natural protein, human, UniProt Q99638 1-391, looked up)
chain: T6 sequence
notes: human Rad9 (hRad9), NM_004584; also called purified His-hRad9; His-purified hRad9 protein; source: bacterially expressed and purified
With B6 the binding [11] was “no binding” and the binding [12] was “no binding”.
